Data on 70 molecules can be found in PubChem BioAssay AID1347073 (National Center for Advancing Translational Sciences (NCATS), 2019).

About 200 (0.44%) of roughly 45,000 compounds were called active. Inconclusive results (about 7%) are left out. The call rests on the fitted dose curve; in most records, active means well fitted activation curve with a large enough effect; inconclusive means small, poorly fitted or top-dose-only effect; inactive means no such curve, though single readings can be large or run the other way. Some of the results follow.

This test can be described thus: qHTS of TDP-43 Inhibitors: NCGC Sytravon Library Screen. Further: 0% is about no effect; nearly all actives have a fitted effect of over 55% in size. The conditions noted are these: yeast TDP-43 toxicity rescue, BacTiter-Glo growth, 24 h; series mostly up to 46.1 µM; growth rescue (activation): at the top concentration. The method in brief: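 TDP-43-expressing yeast, pregrown in raffinose, seeded at OD600 0.02 in galactose medium with compound for 24 hr at 30 deg C. Growth read by BacTiter-Glo luminescence, so rescue of toxicity appears as activation.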
(In general: Quantitative high-throughput screening tests each substance at several concentrations.)
`c1ccc(COc2ccccc2CNC23CC4CC(CC(C4)C2)C3)cc1`: the “growth rescue (activation)” value was inactive: 19.2%.

As for `CC1(C(=O)NS(=O)(=O)c2ccc(Cl)s2)CCN1C(=O)c1ccc(C2CCCCC2)cc1` (stereo not given), the “growth rescue (activation)” value was inactive: 10.2%.

Regarding `Nc1nnc(SCC(=O)Nc2cc(S(=O)(=O)N3CCOCC3)ccc2Cl)s1`, the “growth rescue (activation)” value is inactive: 7.77%.

Turning to `Cc1ccc2c(=O)c(CN3CCCCCC3)c(C)[nH]c2c1C`, the “growth rescue (activation)” value was inactive: 7.82%.

For the molecule `C=CCc1ccc(OCCOc2cccc3cccnc23)c(OC)c1`, the “growth rescue (activation)” value is inactive: 20.2%.

As for `CC1(C)C(=O)OC(c2cccn2-c2ccc([N+](=O)[O-])cc2)C(C)(C)C1=O` (stereo not given), the “growth rescue (activation)” value was inactive: 16.4%.

For `Cc1cc(=O)oc2c1c(C)nn2-c1cccc(Cl)c1`, the “growth rescue (activation)” value was inactive: -7.11%.

In the case of `Cc1ccc(-c2nc(Cl)nc3ccccc23)cc1`, the “growth rescue (activation)” value was inactive: 27.1%.

Regarding `O=[N+]([O-])c1cccc(C(=S)N2CCCC2)c1`, the “growth rescue (activation)” value was inactive: -15.3%.

For the molecule `CN(CC(=O)Nc1ccc(F)cc1)C(=O)Cn1cnc2ccc([N+](=O)[O-])cc2c1=O`, the “growth rescue (activation)” value was inactive: -1.57%.

As to `O=C(O)c1ccccc1C(=O)N1CC=C(c2ccccc2)CC1`, the “growth rescue (activation)” value was inactive: -5.09%.

`O=C(NC1CCCCC1)c1ccc2c(c1)N(Cc1ccc(F)cc1)C(=O)c1ccccc1S2(=O)=O`: the “growth rescue (activation)” value was inactive: 1.45%.

`O=C(CSc1nnnn1-c1ccc(F)cc1)c1ccc(O)c(O)c1`: the “growth rescue (activation)” value was inactive: -8.4%.

On to `COc1cccc(CNc2nc3cc(-c4ccc(OC)c(OC)c4)sc3c(=O)n2C)c1`, for which the “growth rescue (activation)” value was inactive: 3.78%.

Turning to `Cn1c(SCC(=O)Nc2ccc3c(c2)OCCO3)nnc1C1CC1`, the “growth rescue (activation)” value was inactive: 0.478%.

With `COc1ccc(C(=O)NCC(=O)NCC(c2ccco2)N(C)C)cc1OC` (stereo not given), the “growth rescue (activation)” value was inactive: 1.55%.

Regarding `O=C1/C(=C/c2cccs2)SC(=S)N1N1CCOCC1`, the “growth rescue (activation)” value is inactive: 5.2%.

Take `COc1ccccc1N(CC(O)Cn1c(C)nc2ccccc21)S(=O)(=O)c1ccccc1` (stereo not given): the “growth rescue (activation)” value was inactive: 12.9%.

As for `CCCCCCCCNC(CO)(CO)CO`, the “growth rescue (activation)” value was inactive: 0.18%.

Take `CC1(C)C(=O)N(c2ccccc2Cl)C(=O)c2ccccc21`: the “growth rescue (activation)” value is inactive: 13.5%.

With `N#Cc1c(SCC(=O)Nc2nncs2)sc2c(O)cc(=O)[nH]c12`, the “growth rescue (activation)” value is inactive: 4.74%.

In the case of `Cc1nc([N+](=O)[O-])c(Br)n1CC(=O)c1ccc(F)cc1`, the “growth rescue (activation)” value is inactive: 21.9%.

Regarding `C#CCOc1c(Cl)cc(C2C3=C(CCCC3=O)N(CC(=O)O)C3=C2C(=O)CCC3)cc1OC`, the “growth rescue (activation)” value is inactive: -2.66%.

On to `CCOC(=O)C1=C(C)N=c2s/c(=C/c3ccco3)c(=O)n2C1c1cccc(OC)c1` (stereo not given), for which the “growth rescue (activation)” value was inactive: -11.5%.

In the case of `O=C(/C=C/c1ccco1)Nc1ccc(C(=O)N2CCOCC2)cc1`, the “growth rescue (activation)” value is inactive: -0.129%.

Turning to `O=C(O)c1nn(Cc2ncc(-c3cccc(Cl)c3)o2)c(=O)c2ccccc12`, the “growth rescue (activation)” value was inactive: 12.5%.

As for `COc1ccc(OCC(=O)Nc2cc(C)c(Cl)cc2OC)c([N+](=O)[O-])c1`, the “growth rescue (activation)” value is inactive: 12.2%.

On to `Cc1ccc(CNC(=O)CSc2nc(C)cs2)cc1`, for which the “growth rescue (activation)” value is inactive: -7.86%.

Take `CC(=O)NCCC(=O)N1CCCC(CNC(=O)c2ccc(-c3ccccc3)cc2)C1` (stereo not given): the “growth rescue (activation)” value is inactive: 3.55%.

Turning to `CC1=NN(c2nc(-c3ccc(C)cc3)cs2)C(=O)C1N=Nc1ccc(C(N)=O)cc1` (stereo not given), the “growth rescue (activation)” value is inactive: 17.4%.

On to `Cc1ccc(S(=O)(=O)NCc2csc(C)n2)cc1`, for which the “growth rescue (activation)” value is inactive: 0.0582%.

`O=C(CNC(=O)c1ccccc1F)NCCc1ccc(Cl)cc1`: the “growth rescue (activation)” value is inactive: 21.6%.

In the case of `CCc1nc2nc(C)c(NS(=O)(=O)c3ccc(C4CCCCC4)cc3)c(=O)n2[nH]1`, the “growth rescue (activation)” value was inactive: -23.8%.

Regarding `COc1cc(OC)nc(NC(=S)NC(=O)c2ccccc2)n1`, the “growth rescue (activation)” value is inactive: -11.5%.

Consider `C[n+]1ccccc1/C=C/c1ccccc1Cl`, for which the “growth rescue (activation)” value was inactive: 0.522%.

For `NC(CC(=O)O)c1ccc(F)cc1` (stereo not given), the “growth rescue (activation)” value was inactive: 9.75%.

`O=S(=O)(c1cccs1)N1CCN(c2ccccc2)CC1`: the “growth rescue (activation)” value was inactive: 14.9%.

As to `O=C1Nc2cc(C(=O)N3CCc4ccccc4C3)ccc2S/C1=C\c1ccccc1`, the “growth rescue (activation)” value was inactive: 42.2%.

Turning to `CCCCCOc1ccc(C(O)C(CN2CCOCC2)c2ccccc2)cc1` (stereo not given), the “growth rescue (activation)” value was inactive: -1.39%.

For the molecule `C(=N\N(Cc1ccccc1)c1ccccc1)/c1ccco1`, the “growth rescue (activation)” value was inactive: 6.26%.

As for `COC(=O)C1=C(C)NC(C)=C(C(=O)OC)C1C(=O)OCC(=O)N1CCCCC1C` (stereo not given), the “growth rescue (activation)” value was inactive: -15.5%.

For `Cc1ccc2cc(C)c(SCC(=O)NCC3CCCO3)nc2c1` (stereo not given), the “growth rescue (activation)” value was inactive: 11%.

Take `COc1ccc(N(CC(=O)Nc2ccccc2C(N)=O)S(=O)(=O)c2ccc(C)c([N+](=O)[O-])c2)cc1`: the “growth rescue (activation)” value is inactive: 1.95%.

With `COc1ccc(CNc2ncnc3ccccc23)cc1`, the “growth rescue (activation)” value was inactive: -6.94%.

For the molecule `COCCOc1cc(NC(=O)CS(=O)CC(=O)N(C)C)c(Cl)cc1Cl` (stereo not given), the “growth rescue (activation)” value is inactive: -4.04%.

Turning to `CCc1ccccc1NC(=S)N1CCC(NC(=O)c2ccc(OC)cc2)CC1`, the “growth rescue (activation)” value is inactive: 0.874%.

On to `COc1ccc2nc(N=Nc3ccc(O)c4ccccc34)sc2c1`, for which the “growth rescue (activation)” value is inactive: -9.56%.

For the molecule `Cc1oc2nc(SCC(=O)NCc3cccnc3)nc(N)c2c1C`, the “growth rescue (activation)” value was inactive: -3.07%.

On to `O=C(CCSc1nnc(-c2ccc(O)cc2)o1)N1CCOCC1`, for which the “growth rescue (activation)” value was inactive: 13%.

For the molecule `CCOc1ccc(/C=N/NC(=O)CC(=O)NCc2ccccc2)cc1`, the “growth rescue (activation)” value was inactive: -15.7%.

For the molecule `CCCC(=O)Nc1ccc(Cc2ccc(NC(=O)CCC)c(C(=O)O)c2)cc1C(=O)O`, the “growth rescue (activation)” value was inactive: -1.23%.

For the molecule `Cc1cnc(NC(=O)CSCc2c(C)noc2C)s1`, the “growth rescue (activation)” value is inactive: 13%.

For `Cc1ccccc1-n1c(-c2ccc(=O)[nH]n2)n[nH]c1=S`, the “growth rescue (activation)” value was inactive: 15.4%.

`CCCN1C(=O)SC(CC(=O)Nc2ccc(C)cc2)C1=O` (stereo not given): the “growth rescue (activation)” value is inactive: 2.46%.

`O=C(NNC(=S)NC(=O)c1ccccc1[N+](=O)[O-])c1ccccc1O`: the “growth rescue (activation)” value is inactive: -27.6%.

For the molecule `CCCC(O)(c1ccc(OC)cc1)C(CN1CCOCC1)c1ccccc1` (stereo not given), the “growth rescue (activation)” value is inactive: 1.98%.

As for `Oc1ccc(C2=NN(c3ccccc3)C(c3ccc(F)cc3)C2)cc1` (stereo not given), the “growth rescue (activation)” value is inactive: -90.7%.

On to `COc1cc(C(C)=O)ccc1COc1ccc(C(=O)OCC(=O)NC(C)(C)C)cc1OC`, for which the “growth rescue (activation)” value is inactive: 5.22%.

On to `CCCOc1ccc(C(=O)N(Cc2ccc(Cl)cc2)Cc2ccco2)cc1`, for which the “growth rescue (activation)” value was inactive: 28.2%.

On to `O=C(Nc1cccc(F)c1)C1CCN(S(=O)(=O)c2cccc3nonc23)CC1`, for which the “growth rescue (activation)” value is inactive: 12.4%.

Turning to `COc1cc(NC(=S)Nc2ccc(Br)cc2Cl)c(OC)cc1Cl`, the “growth rescue (activation)” value was inactive: 21.5%.

For `Cc1ccc(-c2c(C(=O)NC(C)C)oc(=O)c3ccccc23)cc1`, the “growth rescue (activation)” value was inactive: 4.92%.

With `CSc1ccccc1NC(=O)c1ccccc1`, the “growth rescue (activation)” value was inactive: 12.5%.

`CCN(c1ccccc1)S(=O)(=O)c1ccc(C(=O)N2CCN(c3ccccc3)CC2)cc1`: the “growth rescue (activation)” value is inactive: 26.7%.

As for `NC(=O)CC1C(=O)N(c2ccccc2)C(=S)N1NC(=O)c1ccc(Br)cc1` (stereo not given), the “growth rescue (activation)” value is inactive: -5.53%.

Regarding `O=C(C1CCCO1)N1CCN(C(=S)Nc2ccccc2F)CC1` (stereo not given), the “growth rescue (activation)” value is inactive: 4.62%.

With `COc1ccc(N(C(=O)CSCC(=O)Nc2cc(C)on2)C(C(=O)NC2CCCCC2)c2ccc(O)c(O)c2)cc1` (stereo not given), the “growth rescue (activation)” value is inactive: -12.7%.

As for `O=C(COC(=O)COc1cccc(F)c1)NCCC1=CCCCC1`, the “growth rescue (activation)” value is inactive: 3.76%.

As for `CC(C)(C)n1nc2c(c1NC(=O)c1ccco1)CS(=O)C2` (stereo not given), the “growth rescue (activation)” value was inactive: 21.2%.

Turning to `CCn1c2ccccc2c2cc(NC(=O)COC(=O)c3cc(S(N)(=O)=O)c(Cl)cc3Cl)ccc21`, the “growth rescue (activation)” value is inactive: 28.2%.
